Data published in PubChem BioAssay AID1745845 (National Center for Advancing Translational Sciences (NCATS), 2022).
Values joined by “and” are separate entries in the source; they are usually repeats but may differ in a detail not shown here. Equal values may be shown once. Screen size: about 360,000 compounds; about 2,600 (0.72%) were called active. The inconclusive results got no clear call from the source; some entries with a clear call stand among them for comparison. Calls follow the shape of the dose curve; as a rule, active = well fitted inhibition curve with a large enough effect; inconclusive = small, poorly fitted or top-dose-only effect; inactive = no such curve, though single readings can be large or run the other way. Potencies beside an inconclusive call are fits to weak or partial responses and may not hold up.

Assay: Primary qHTS for Inhibitors of ATXN expression; also: nearly all actives have a fitted effect of over 55% in size
Settings: HEK-293 ATXN2-luciferase reporter, luminescence, 24 h; activity change, negative = inhibition: at 57 µM (top of the series)
In short: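 qHTS (up to 57 uM final) was run with 24 h compound exposure of reporter cells at 37 °C. Each well was multiplexed: SteadyGlo luminescence measured ATXN2-luciferase expression after a fluorogenic Gly-Phe-AFC viability readout (25 uM final).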
% is scaled to controls: 0 for no effect and ±100 for the full control effect; potency is read from the fitted curve at half-maximal effect; tags tell the direction and shape of the fitted curve.

Compound | activity change, negative = inhibition | Potency
O=C(NCC1CCCO1)C(c1cccs1)N(Cc1ccccc1Cl)C(=O)c1ccc(-c2ccccc2)[nH]1 (stereo not given) | inactive: -22% | 
Cc1cc(C(F)(F)F)n(-c2nc(C(=O)N/N=C/c3ccc(F)cc3)cs2)n1 |  | inconclusive: 39.8 µM [inhibitor, partial curve, poor fit]
Cn1nc(C(=O)NCc2ccccc2)cc1C(=O)NCc1ccccc1 |  | inconclusive: 11.2 µM [inhibitor, partial curve, poor fit]
O=C(CSC(=S)N1CCOCC1)c1cc2ccccc2oc1=O |  | inconclusive: 39.8 µM [inhibitor, single point]
COCC(C)OC(=O)C(C#N)c1nc2ccccc2nc1N1CCN(Cc2ccccc2)CC1 (stereo not given) | inactive: -11.6% | 
Cn1nnnc1Sc1ncnc2scc(-c3ccc(Br)cc3)c12 |  | active: 15.8 µM
CCOc1cc(/C=N/NC(=O)CNc2cccc(C)c2)ccc1OC(=O)c1ccccc1 | inactive: -2.55% | 
COc1ccc2oc(C(=O)Nc3ccc(S(=O)(=O)N(C)C4CCN(C)CC4)cc3)c(C)c2c1 |  | inconclusive: 28.2 µM [inhibitor, single point]
COc1ccc(C(=O)CSc2nnc(-c3ccco3)n2CC2CCCO2)cc1 (stereo not given) | inactive: 0.989% | 
Cc1[nH]c2ccccc2c1C(=O)CSc1nc2ncc(Cl)cc2[nH]1 |  | inconclusive: 1.68 µM [inhibitor, full curve, poor fit]
Cc1cccc(N(C(=O)c2snc(C(N)=O)c2N)C(C(=O)NCc2ccccc2)c2ccncc2)c1 (stereo not given) | inconclusive: -49.2% [inhibitor] | 
O=C(CSc1nc2c(cnn2-c2ccc(F)cc2)c(=O)[nH]1)Nc1ccc(Br)cc1 | inactive: -5.57% | 
CSc1nnc2c3cc(C)ccc3n(Cc3ccccc3)c2n1 |  | inconclusive: 39.8 µM [inhibitor, single point]
Cn1c(=O)[nH]c(=O)c2c1nc1n(CCO)c(-c3ccccc3)cn21 | inactive: 10.9% | 
CC(=O)c1ccc2c(c1)N(CCCN(C)C)c1ccccc1S2 |  | inactive and inconclusive: 28.2 µM [inhibitor, partial curve]
O=C(Nc1ccccc1)Nc1nnc(Cc2ccc([N+](=O)[O-])cc2)s1 |  | inconclusive: 25.1 µM [inhibitor, single point]
Cc1ccc2sc(N(CCCN(C)C)C(=O)c3ccc(S(=O)(=O)N4CCCCCC4)cc3)nc2c1C |  | inconclusive: 35.5 µM [inhibitor, single point]
Cc1ccc(S(=O)(=O)c2c(N)n(Cc3ccco3)c3nc4ccccc4nc23)cc1 |  | inconclusive: 39.8 µM [inhibitor, single point]
CCC(C)Sc1ccc(-c2nc3cnccn3c2NC2CCCCC2)cc1 (stereo not given) |  | inconclusive: 39.8 µM [inhibitor, single point]
O=C(NCc1ccco1)c1cc(-c2cccs2)on1 | inactive: 22% | 
CC1CCC(C(C)C)C(OCC(O)CNC(C)c2ccccc2)C1 (stereo not given) |  | inconclusive: 26.7 µM [inhibitor, partial curve, poor fit]
Cc1cccc(C)c1-n1c(C)cc(/C=N/NC(=O)CSc2ncccn2)c1C | inactive: -2.53% | 

Compound | activity change, negative = inhibition | Potency
CCn1c(C)nc2cc(C(=O)NNC(=S)NC(=O)c3ccc(OC)cc3)ccc21 | inactive: -12.9% | 
Cc1ccc2c(c1)c(-c1ccccc1)nc1nnnn12 | inactive: -23.1% | 
Cc1ccc(-c2csc(N3CCC[C@@H]3C(=O)NCCn3c(C(F)(F)F)nc4ccccc43)n2)cc1 |  | inconclusive: 39.8 µM [inhibitor, single point]
CCOc1ccc(CNC(=O)c2c(C)nn(-c3ccc(F)cc3)c2-n2cccc2)cc1 |  | inconclusive: 35.5 µM [inhibitor, single point]
Cc1cccc(C)c1NC(=O)CN1C(=O)S/C(=C\c2cccn2C)C1=O |  | inconclusive: 28.2 µM [inhibitor, single point]
O=C(Nc1ccccc1)C1Cc2c(-c3ccccc3Oc3ccccc3)ccnc2O1 (stereo not given) |  | inconclusive: 35.5 µM [inhibitor, single point]
C=C[C@]1(C)C=C2C(=O)[C@@]3(O)OC(=O)[C@@]4(CCCC(C)(C)[C@H]34)[C@@]2(O)CC1 |  | active: 1.58 µM
CCC(C)NC(=O)C1CCN(S(=O)(=O)c2cccs2)CC1 (stereo not given) |  | inconclusive: 7.08 µM [inhibitor, single point]
COc1ccc(NC(=O)CSc2c3c(nc4ccccc24)CCCC3)c(OC)c1 |  | inconclusive: 39.8 µM [inhibitor, single point]
Cc1cccc(COC[C@H](Cc2ccccc2)N2CCN(C(=O)c3cc(Cl)cc(Cl)c3)CCC2=O)c1 |  | inconclusive: 39.8 µM [inhibitor, single point]
COc1ccccc1C(=O)Nc1nc(-c2ccc(S(=O)(=O)N3CCOCC3)cc2)cs1 |  | active: 14.1 µM
Cc1cccc(C)c1-n1nnnc1C(c1ccnc2ccccc12)N(CCC#N)Cc1ccccc1 (stereo not given) |  | inconclusive: 39.8 µM [inhibitor, single point]
CCCc1ccc(C2Sc3ccccc3NC3=C2C(=O)c2ccccc23)cc1 (stereo not given) |  | inconclusive: 39.8 µM [inhibitor, single point]
COC(=O)N1C(=O)[C@@](Cc2ccccc2)(c2ccccc2)N1C(=O)OC |  | inconclusive: 20 µM [inhibitor, single point]
CCOC(=O)C1=C(C)N=c2s/c(=C\c3ccc(OC(C)=O)c(OCC)c3)c(=O)n2C1/C=C/c1ccccc1 (stereo not given) | inactive: -25.8% | 
NC(=O)C1CCN(C2=C(NS(=O)(=O)c3ccc(Br)cc3)C(=O)c3ccccc3C2=O)CC1 |  | inconclusive: 25.1 µM [inhibitor, single point]
OC(CN1CCCCC1)Cn1c2ccc(Cl)cc2c2cc(Cl)ccc21 (stereo not given) |  | inconclusive: 37.7 µM [inhibitor, single point]
COc1ccc(C[C@H]2CN3C(=NC[C@@H]3Cc3ccc(O)cc3)N2CCNC(=O)c2ccc(C)c(Br)c2)cc1 |  | active: 25.1 µM
CCCCN(C(=O)CSCc1c(C)noc1C)c1c(N)n(CCCC)c(=O)[nH]c1=O | inactive: 0.68% | 
CC(Sc1ccc(Cl)cc1)C(=O)NNC(=O)c1ccccc1O (stereo not given) |  | inconclusive: 20 µM [inhibitor, partial curve]
O=C(N/N=C/C=C/c1ccccc1)c1cccc(Br)c1 |  | inconclusive: 39.8 µM [inhibitor, single point]
COc1ccc(NC(=O)N(C)[C@H]2C[C@H]3c4[nH]c5ccc(-c6ccc7c(c6)OCO7)cc5c4CCN3C[C@H]2[C@H](C)O)cc1 |  | active: 15.8 µM

Compound | activity change, negative = inhibition | Potency
COC(=O)c1ccc2nc(C3CCCCC3)c(Cc3ccccc3C(F)(F)F)n2c1 |  | inconclusive: 39.8 µM [inhibitor, single point]
C[C@H]1CCC/C=C/[C@@H]2C[C@H](O)C[C@H]2[C@H](O)[C@H](S(=O)c2ccc(O)cc2)CC(=O)O1 (stereo not given in full) |  | inconclusive: 3.98 µM [inhibitor, full curve]
O=C(NCc1nc2ccccc2[nH]1)C1=C[C@@H](c2ccccc2)C[C@@H](OCc2ccc(CO)cc2)O1 | inactive: -6.35% | 
C[C@@H]1CN([C@H](C)CO)C(=O)Cc2cc(NS(=O)(=O)c3ccc(Cl)cc3)ccc2O[C@H]1CN(C)Cc1ccc(C(F)(F)F)cc1 |  | inconclusive: 39.8 µM [inhibitor, single point]
CC(=O)NC(c1ccc(C)cc1)c1cc([N+](=O)[O-])c2cccnc2c1O (stereo not given) |  | inconclusive: 2.38 µM [inhibitor, partial curve, poor fit]
COc1cccc(C(=O)NCc2nc(-c3ccccc3)no2)c1OC | inactive: -6.35% | 
CC1=NNC(=O)C1CCC(=O)N/N=C/c1c(Cl)cccc1Cl (stereo not given) |  | inconclusive: 26.7 µM [inhibitor, partial curve, poor fit]
COc1cccc(C2c3cc4c(cc3OC(NNC(N)=O)C2C)OCO4)c1O (stereo not given) | inactive: 10.5% | 
CCCn1nnc(NC(=S)NC(=O)C(C)(C)C)n1 | inactive: 5% | 
Cc1cc(C(=O)Nc2nnc(C(F)(F)F)s2)cs1 | inactive: 13.2% | 
CCO[C@H]1OC(C(=O)N2CCN(Cc3ccccc3)CC2)=C[C@@H](C2CCCCC2)[C@@H]1CCCO |  | inconclusive: 39.8 µM [inhibitor, single point]
COc1cccc(CNC(=O)Cn2ncc3c4ccccc4n(Cc4ccccc4)c3c2=O)c1 |  | inconclusive: 5.01 µM [inhibitor, partial curve, poor fit]
CCOC(=O)N1CCN(S(=O)(=O)c2ccc(C(=O)Nc3sc4c(c3C(=O)OC)CCN(C)C4)cc2)CC1 |  | inconclusive: 15.8 µM [inhibitor, partial curve, poor fit]
CC(C)C(C=Cc1ccccc1)=NNS(=O)(=O)c1ccccc1 | inactive: 2.53% | 
Cc1ccc(SCC(=O)OCC(=O)N(CC(C)C)c2c(N)n(Cc3ccccc3)c(=O)[nH]c2=O)cc1C | inactive: -18.9% | 
O=C(N/N=C/c1ccc(-c2cccc([N+](=O)[O-])c2)o1)c1ccccc1O |  | inconclusive: 17.8 µM [inhibitor, partial curve]
NNc1nc2cccnc2n(CCNc2ncc(C(F)(F)F)cc2Cl)c1=O | inconclusive: -47.1% [inhibitor] | 
CCNc1nc(NCC)n2c(SC(C(=O)Nc3cc(Cl)cc(Cl)c3)c3ccccc3)nnc2n1 (stereo not given) |  | active: 25.1 µM
CN(CC(=O)Nc1ccc(Cl)cc1)C(=O)c1cccc(S(=O)(=O)N2CCN(Cc3ccccc3)CC2)c1 |  | inconclusive: 22.4 µM [inhibitor, partial curve, poor fit]
CCc1nc(N)nc(N)c1-c1ccc(N(C)Cc2ccccc2)c([N+](=O)[O-])c1 |  | active: 18.9 µM
O=C1c2ccccc2NC(c2cccc(F)c2)N1Cc1ccco1 (stereo not given) |  | inconclusive: 31.6 µM [inhibitor, partial curve, poor fit]
